# Reference: PubChem BioAssay AID360 (National Center for Advancing Translational Sciences (NCATS), 2006)
# The whole screen tested about 48,000 compounds, of which about 550 (1.1%) were called active. Another 4% or so got no clear call; they are omitted. Rule as the data show it: active = potency below about 15 µM; inconclusive = mostly about 16 µM to 33 µM; inactive = weaker than that. The list shows a part of the results.
# Target: Lysosomal acid glucosylceramidase (Homo sapiens) (UniProt P04062)
# UniProt P04062, sequence (P04062 whole entry, looked up): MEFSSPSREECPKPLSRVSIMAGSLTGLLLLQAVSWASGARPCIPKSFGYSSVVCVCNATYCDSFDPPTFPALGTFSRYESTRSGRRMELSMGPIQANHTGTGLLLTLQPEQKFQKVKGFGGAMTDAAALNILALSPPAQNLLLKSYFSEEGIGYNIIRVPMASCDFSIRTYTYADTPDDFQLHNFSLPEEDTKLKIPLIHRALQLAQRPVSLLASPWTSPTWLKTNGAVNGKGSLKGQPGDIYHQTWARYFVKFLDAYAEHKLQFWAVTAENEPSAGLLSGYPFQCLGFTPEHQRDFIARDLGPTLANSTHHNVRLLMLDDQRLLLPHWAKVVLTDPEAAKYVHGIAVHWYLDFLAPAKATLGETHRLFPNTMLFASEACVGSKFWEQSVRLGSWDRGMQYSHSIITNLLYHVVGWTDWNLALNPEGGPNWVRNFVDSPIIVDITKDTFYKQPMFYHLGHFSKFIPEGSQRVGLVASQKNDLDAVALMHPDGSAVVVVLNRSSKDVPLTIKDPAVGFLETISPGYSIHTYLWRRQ
# Assay: Glucocerebrosidase;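 also: the screen sought inhibitors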
# Details: purified enzyme, resorufin glucoside fluorescence (screen aimed at inhibitors), 20 min
# Procedure, shortened: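 Normal human glucocerebrosidase (0.2 nM final) was assayed with resorufin β-D-glucopyranoside (30 uM final) in 50mM citric acid/KH2PO4, 10mM sodium taurocholate, 0.01% tween-20, pH 5.9. Compounds were titrated; fluorescence (Ex 548, Em 600) read after 20 min at RT.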
# Potency is read from the fitted curve at half-maximal effect.
row,SMILES,Potency
1,O=C(CCCOc1ccc(Cl)cc1Cl)N1CCN(c2ccccn2)CC1,inactive: > 76.9 µM
2,Cc1onc(-c2ccccc2Cl)c1C(=O)OCC(=O)N1CCCc2ccccc21,inactive: > 76.9 µM
3,COCCN(CC(=O)NCc1ccc(OC)cc1)C(=O)CCC(=O)Nc1nccs1,inactive: > 76.9 µM
4,O=C1CC(N2CCN(c3ccccc3Cl)CC2)C(=O)N1c1ccccc1 (stereo not given),inactive: > 76.9 µM
5,CCCN(c1ccc(C(C)C)cc1)S(=O)(=O)c1c(C)noc1C,inactive: > 76.9 µM
6,COc1ccccc1CNC(=O)[C@@H]1CCCN1C(=O)C1CCN(S(=O)(=O)c2ccc(C)cc2)CC1,inactive: > 76.9 µM
7,CC1Cc2nc(SCC(=O)NCC3CCCO3)n(Cc3ccccc3)c(=O)c2S1 (stereo not given),inactive: > 76.9 µM
8,Cc1ccccc1NC(=O)C1CCCN1C(=O)NC1CCCCC1 (stereo not given),inactive: > 76.9 µM
9,CCNS(=O)(=O)c1ccc2nc(NC(=O)c3cccnc3)sc2c1,inactive: > 76.9 µM
10,CCOC(=O)/C=C1\SCC(=O)N1CC(=O)Nc1ccc2c(c1)CCC2,inactive: > 76.9 µM
11,Cc1noc(/C=C/N(C)C)c1S(=O)(=O)N1CCCC(C(=O)NCc2ccc(Cl)cc2)C1 (stereo not given),active: 14 µM
12,CC1CCN(CCNC(=O)CCS(=O)(=O)c2ccc(Br)cc2)CC1,inactive: > 76.9 µM
13,Cc1ccccc1C1CC(=O)NC2=C1C(=O)CCC2 (stereo not given),inactive: > 76.9 µM
14,COc1ccc(NC(=O)c2cc(-c3ccccc3OC)on2)cc1,inactive: > 76.9 µM
15,O=C(Nc1cccnc1)c1cc(-c2cccs2)on1,inactive: > 76.9 µM
16,Cc1ccccc1NC(=O)CC1SC(=NC2CCCCC2)NC1=O (stereo not given),inactive: > 76.9 µM
17,CC(=O)c1cccc(NC(=O)N2CCCC2C(=O)NC2CCCCC2)c1 (stereo not given),inactive: > 76.9 µM
18,COc1cc(S(=O)(=O)N2CCCC3(CCCCC3)C2)ccc1-n1cnnn1,inactive: > 76.9 µM
19,CCn1nccc1C(=O)Nc1ccc(Cl)cc1Cl,inactive: > 76.9 µM
20,COCCn1c(-c2cc(OC)c(OC)c(OC)c2)nc2nc3ccccc3nc21,inactive: > 76.9 µM
21,CCN1CCN(c2cc(=O)n(-c3cc(Cl)ccc3C)c(=O)[nH]2)CC1,inactive: > 76.9 µM
22,Nc1nc(SCC(=O)N2CCc3ccccc3C2)[nH]c(=O)c1-c1ccccc1,inactive: > 76.9 µM
23,COc1cc(C(=O)N2CCCN(c3nc4cc(C)ccc4cc3C#N)CC2)cc(OC)c1OC,inactive: > 76.9 µM

row,SMILES,Potency
1,Clc1ccccc1-c1nn2c(Cn3cnc4ccccc43)nnc2s1,inactive: > 76.9 µM
2,CCOc1ccc(/C(O)=C2/C(=O)C(=O)N(CCOCCO)C2c2ccccc2)cc1 (stereo not given),inactive: > 76.9 µM
3,CSCCC(NC(=O)COc1ccccc1)C(=O)N1CCN(c2ccccc2F)CC1 (stereo not given),inactive: > 76.9 µM
4,CCOc1ccc(C(=O)O)cc1OC,inactive: > 76.9 µM
5,N#CCCSCc1ccc(C(=O)O)o1,inactive: > 76.9 µM
6,O=C(COC(=O)c1cnccn1)Nc1ccc(Cl)cc1,inactive: > 76.9 µM
7,COc1cc2[nH]c(=O)n(CCC(=O)N3CCN(c4cc(Cl)ccc4C)CC3)c(=O)c2cc1OC,inactive: > 76.9 µM
8,CC(C)=CCCC(C)NC(=O)NC1CCCCC1 (stereo not given),inactive: > 76.9 µM
9,COC(=O)c1ccccc1NC(=O)C(C)NS(=O)(=O)c1ccc(OC)cc1 (stereo not given),inactive: > 76.9 µM
10,COc1cccc2sc(Nc3nc(-c4ccccn4)cs3)nc12,inactive: > 76.9 µM
11,CCOC(=O)C1C(C)=CC(=O)CC1c1ccco1 (stereo not given),inactive: > 76.9 µM
12,CCOCCCNC(=O)c1ccc(OC)cc1,inactive: > 76.9 µM
13,CCC1(CC)NC(=O)NC1=O,inactive: > 76.9 µM
14,COCCn1c(=S)[nH]c2ccc(N(C)C)cc2c1=O,inactive: > 76.9 µM
15,CCN1C(=O)CC(N2CCC(C(=O)N3CCOCC3)CC2)C1=O (stereo not given),inactive: > 76.9 µM
16,CN1CCN(S(=O)(=O)c2ccc3[nH]cc(C(=O)O)c(=O)c3c2)CC1,inactive: > 76.9 µM
17,COc1nc(NCCc2ccc(OC)c(OC)c2)nc(OC)n1,inactive: > 76.9 µM
18,CC(C)CCNC(=O)CCCOc1cc(=O)n(C)c2ccccc12,inactive: > 76.9 µM
19,CCn1c(=O)cc(SCC(=O)N2CCN(C3CCCCC3)CC2)c2ccccc21,inactive: > 76.9 µM
20,CCSc1ccccc1C(=O)n1nnc2ccccc21,inactive: > 76.9 µM
21,CCOC(=O)CSc1nnc(-c2nnc(SCC(=O)OCC)n2CC)n1CC,inactive: > 76.9 µM
22,NC(=O)c1cnn2c(C(F)(F)F)cc(-c3ccccc3)nc12,inactive: > 76.9 µM
23,O=C(NCc1ccco1)c1cc(-c2cccnc2)nc2ccccc12,inactive: > 76.9 µM

row,SMILES,Potency
1,O=C(CCn1nc(-c2ccc(Cl)cc2)ccc1=O)N1CCN(c2ccccn2)CC1,inactive: > 76.9 µM
2,CC(C)CCn1c(=O)c2ccccc2n2c(CN(C)Cc3ccccc3)nnc12,inactive: > 76.9 µM
3,COC(=O)c1[nH]c2ccc(C)cc2c1NS(=O)(=O)c1ccc(F)c(C)c1,inactive: > 76.9 µM
4,COc1ccc(C)cc1S(=O)(=O)N1CCC(C(=O)N2CCOCC2)CC1,inactive: > 76.9 µM
5,CC(C)Cn1c(SCC(=O)N2CCN(S(=O)(=O)c3ccccc3)CC2)nc2ccccc21,inactive: > 76.9 µM
6,Cc1nnc(Sc2nc3c(c(=O)n(C)c(=O)n3C)n2Cc2ccccc2Cl)s1,inactive: > 76.9 µM
7,CC(C)OCCCNC(=O)c1ccncc1,inactive: > 76.9 µM
8,CNC(=O)CN(C1CCCCC1)S(=O)(=O)c1ccc(F)cc1,inactive: > 76.9 µM
9,O=C(CN1CCN(c2ccc(Cl)cc2)CC1)Nc1ccc(F)cc1,inactive: > 76.9 µM
10,CC1CCCCN1C(=O)c1cc(-c2ccc(Cl)c(Cl)c2)on1 (stereo not given),inactive: > 76.9 µM
11,O=c1c2ccccc2nc(SCc2nc3ccccc3s2)n1Cc1ccco1,inactive: > 76.9 µM
12,CCOC(=O)Cn1c(=O)c2c(nc(N3CCCCC3)n2Cc2ccccc2)n(C)c1=O,inactive: > 76.9 µM
13,C=CCNC(=O)CN1C2CCCC1CC(NC(=O)c1ccccc1C)C2 (stereo not given),inactive: > 76.9 µM
14,CCOc1ccc(N2C(=O)c3cccnc3C2Nc2ccc(Cl)cc2)cc1 (stereo not given),inactive: > 76.9 µM
15,O=C(NCc1cccnc1)C1CCCN(S(=O)(=O)c2ccccc2)C1 (stereo not given),inactive: > 76.9 µM
16,Fc1ccc(CNc2nc(-c3ccco3)cc(C(F)(F)F)n2)cc1,inactive: > 76.9 µM
17,COc1ccc(C(=O)N2CCCC(c3nc(-c4cccs4)no3)C2)cc1 (stereo not given),inactive: > 76.9 µM
18,Cc1cc(N2CCCCCC2)nc(-c2ccccc2O)n1,inactive: > 76.9 µM
19,COc1ccc(OCC(=O)N2CCN(c3cccc(C(F)(F)F)c3)CC2)cc1,inactive: > 76.9 µM
20,CC1Cc2ccccc2N1S(=O)(=O)c1cccc2nsnc12 (stereo not given),inactive: > 76.9 µM
21,CCOc1cc2[nH]c(=S)n(CCCOC)c(=O)c2cc1OCC,inactive: > 76.9 µM
22,Cc1c(C(=O)N2CCN(c3ccccc3)CC2)sc2ncnc(N3CCN(c4ccccc4)CC3)c12,inactive: > 76.9 µM
23,CCOC(=O)c1cnc2ccccc2c1NCCO,inactive: > 76.9 µM

row,SMILES,Potency
1,COc1cc(OC)cc(-c2nnc(SCc3c(F)cccc3Cl)o2)c1,inactive: > 76.9 µM
2,O=C(Nc1ccc(S(=O)(=O)C(F)F)cc1)c1cccc(S(=O)(=O)N2CCOCC2)c1,inactive
3,Cc1ccc(-n2c3c(cc(C(=O)N4CCN(C)CC4)c2=O)C(=O)CC(C)(C)C3)cc1,inactive: > 76.9 µM
4,CCOC(=O)C1CCCN(CC(=O)Nc2c(C(=O)OC)[nH]c3ccc(C)cc23)C1 (stereo not given),inactive: > 76.9 µM
5,COc1ccc(NC(=O)CSc2nc3c(c(=O)n2-c2ccc(F)cc2)SCC3)c(OC)c1,inactive: > 76.9 µM
6,O=C(Nc1ccc2c(c1)OCCO2)c1cc(-n2cnnc2)ccc1Cl,inactive: > 76.9 µM
7,CCCn1c(C)nc2c(c1=O)c1nc3ccccc3nc1n2-c1ccc2c(c1)OCCO2,inactive: > 76.9 µM
8,COc1ccc(S(=O)(=O)Nc2cccc(NC(C)=O)c2)cc1,inactive: > 76.9 µM
9,CCCC(C(=O)NC1CCCC1)N(C(=O)Cn1nnc(-c2ccc(C)o2)n1)C1CCCC1 (stereo not given),inactive: > 76.9 µM
10,COc1ccc(N2CCN(c3nc4c(c(=O)n(C)c(=O)n4C)n3CCCc3ccccc3)CC2)cc1,inactive: > 76.9 µM
11,COc1ccc(NC(=O)Cn2nnc(-c3ccccc3F)n2)cc1,inactive: > 76.9 µM
12,CCc1nc(NCCCN2CCOCC2)c2oc3ccccc3c2n1,inactive: > 76.9 µM
13,Cn1c(CNc2ccc(Cl)cc2)nc2ccccc21,inactive: > 76.9 µM
14,CCOc1c(Br)cc(C2NS(=O)(=O)N=C3CCCCCN32)cc1OC (stereo not given),inactive: > 76.9 µM
15,Nc1sc2c(c1C(=O)NC1CCS(=O)(=O)C1)CCC2 (stereo not given),inactive: > 76.9 µM
16,Cc1ccc(C(=O)Nc2ncc(Cc3ccccc3)s2)o1,inactive: > 76.9 µM
17,CCSc1nc2c(c(=O)n1CC)SC(C)C2 (stereo not given),inactive: > 76.9 µM
18,COc1ccccc1N1CCN(CC(=O)Nc2cc(C)nn2-c2nc(C)cc(C)n2)CC1,inactive: > 76.9 µM
19,COc1ccc(CN2CCN(C(=O)c3cccnc3)CC2)cc1Br,inactive: > 76.9 µM
20,CCOC(=O)c1sc(N)c(C#N)c1CSc1nc2ccc(OCC)cc2[nH]1,inactive: > 76.9 µM
21,CCCc1[nH]n(-c2nc3ccccc3s2)c(=O)c1C=NCC1CCCO1 (stereo not given),active: 12.7 µM
